# Laboratory results reported in paper PMC4336329 (PLoS ONE, 2015).
# Out of some 310,000 compounds screened, about 2,200 (0.71%) showed an effect of 50% or more. The effect is printed as a negative number. The list shows a part of the results.
# Target: human ether-à-go-go-related gene (hERG) potassium channel (human, UniProt Q12809)
# Assay: primary screen, population patch clamp on CHO cells stably expressing hERG
# human ether-à-go-go-related gene (hERG) potassium channel, sequence (Q12809 whole entry, looked up): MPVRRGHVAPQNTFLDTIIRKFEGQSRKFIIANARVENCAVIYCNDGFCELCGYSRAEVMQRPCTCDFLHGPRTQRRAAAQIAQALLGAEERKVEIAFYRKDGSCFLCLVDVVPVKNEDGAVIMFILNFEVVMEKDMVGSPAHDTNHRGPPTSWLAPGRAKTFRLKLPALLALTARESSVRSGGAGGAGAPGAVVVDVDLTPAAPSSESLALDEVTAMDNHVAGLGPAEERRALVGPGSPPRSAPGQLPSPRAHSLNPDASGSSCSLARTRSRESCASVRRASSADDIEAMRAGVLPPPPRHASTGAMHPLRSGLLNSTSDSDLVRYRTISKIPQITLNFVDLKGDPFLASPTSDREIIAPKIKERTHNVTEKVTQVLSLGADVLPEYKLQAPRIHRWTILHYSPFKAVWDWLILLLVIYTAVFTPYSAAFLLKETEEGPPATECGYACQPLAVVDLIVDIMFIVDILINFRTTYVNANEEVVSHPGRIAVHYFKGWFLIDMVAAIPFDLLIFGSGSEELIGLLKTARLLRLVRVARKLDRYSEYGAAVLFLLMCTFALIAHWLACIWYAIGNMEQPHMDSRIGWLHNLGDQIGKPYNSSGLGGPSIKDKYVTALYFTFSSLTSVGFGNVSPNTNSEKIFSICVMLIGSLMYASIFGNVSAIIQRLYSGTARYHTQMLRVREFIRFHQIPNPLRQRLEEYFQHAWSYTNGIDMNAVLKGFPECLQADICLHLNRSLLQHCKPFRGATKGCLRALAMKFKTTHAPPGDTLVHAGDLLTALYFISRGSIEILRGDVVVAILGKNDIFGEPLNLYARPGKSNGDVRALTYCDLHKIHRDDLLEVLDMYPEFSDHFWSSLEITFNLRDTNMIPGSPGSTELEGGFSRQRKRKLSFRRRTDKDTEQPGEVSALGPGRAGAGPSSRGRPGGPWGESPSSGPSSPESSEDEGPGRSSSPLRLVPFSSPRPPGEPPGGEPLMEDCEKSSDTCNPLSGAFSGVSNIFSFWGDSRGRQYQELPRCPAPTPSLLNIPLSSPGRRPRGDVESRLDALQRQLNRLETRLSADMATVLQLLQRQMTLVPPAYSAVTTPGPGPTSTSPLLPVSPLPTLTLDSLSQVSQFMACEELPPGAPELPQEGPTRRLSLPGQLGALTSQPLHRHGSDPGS
row,SMILES,"hERG current change (%, negative = inhibition) at 1uM [%]"
1,CCOC(=O)C1CCN(C(=O)C2CCN(c3nnc(-n4cccc4)s3)CC2)CC1,-35.3
2,O=C(COC(=O)/C=C/c1ccc([N+](=O)[O-])cc1)NCc1ccco1,0.176
3,Cc1ccc(NS(=O)(=O)c2c(C(=O)N3CCCC3)c(C)n(C)c2C)cc1,5.94
4,COc1cc(OC)c(OC)cc1CN1CCN(c2ccc(F)cc2)CC1,-37
5,O=C(CN1CCN(c2ccccn2)CC1)Nc1ccccc1C(=O)Nc1ccccc1,-10.3
6,CCOC(=O)C1=NN(C(=O)COc2ccccc2)C(O)(c2ccc(Br)cc2)C1 (centres unmarked),-3.14
7,CCN(C(=O)CN1CCN(c2ccccc2F)CC1)c1c(N)n(Cc2ccccc2)c(=O)[nH]c1=O,5.07
8,Cc1cc(OCC(=O)NCCN2CCOCC2)ccc1Br,4.41
9,CCOC(=O)N1CCN(C(=O)C(c2ccccc2)c2ccccc2)CC1,12.8
10,C(=N\n1cnnc1)/c1cn(-c2cccs2)nc1-c1ccccc1,-3.47
11,CCS(=O)(=O)c1ncc(CO)n1CCc1ccccc1,10.1
12,CCOC(=O)c1oc2ccccc2c1NC(=O)c1ccc(Cl)s1,11.8
13,CCCn1c2ccccc2c2cnn(CC(=O)NCCN(C)C)c(=O)c21,-12.5
14,CCOC(=O)CN(C(=O)COC(=O)C1(c2ccccc2)CC1)c1ccc(F)cc1,24.2
15,CC1(C)Cc2c(sc3nc(SCC(=O)O)[nH]c(=O)c23)CO1,10.1
16,Cc1sc2ncnc(Sc3ccccc3C(=O)Nc3ccccc3Cl)c2c1C,1.08
17,c1ccc(CCc2nc3ccccc3[nH]2)cc1,15
18,Cc1ccc(S(=O)(=O)CCC(=O)NCc2ccccc2)cc1,10.1
19,Cl.N=c1n(CCO)c2ccccc2n1Cc1ccccc1Cl,-5.09

row,SMILES,"hERG current change (%, negative = inhibition) at 1uM [%]"
1,COc1ccccc1-c1ccc(SCc2ccc(F)cc2)nn1,5.39
2,O=C(NC(Cc1ccccc1)C(=O)O)/C(=C/c1ccc(Cl)cc1)NC(=O)c1ccco1 (centres unmarked),18
3,CCn1c(=O)c(C(=O)NCc2ccccn2)c(O)c2ccccc21,10.1
4,CCOC(=O)CC(=O)CSc1nnc(Cn2c(=O)sc3ccccc32)n1C,12.9
5,COc1cc2nc(N3CCN(C(=O)c4ccco4)CC3)nc(N)c2cc1OC.Cl,-5.21
6,CCn1nc(-c2ccccc2)nc2c(=O)n(C)c(=O)nc1-2,-7.24
7,CCOC(=O)c1cc2c(=O)n3ccccc3nc2n(CC2CCCO2)c1=NC(C)=O (centres unmarked),16.6
8,COc1ccc(C(=O)N2CCN(C(=O)Cc3ccccc3)CC2)cc1.O=C(O)C(=O)O,0.55
9,Cc1nc(SCC(=O)N2CCC(Cc3ccccc3)CC2)[nH]c(=O)c1C,-5.21
10,O=C(CCS(=O)(=O)c1ccc(Cl)cc1)Nc1nnc(-c2ccco2)o1,8.43
11,COc1ccc(CN(CCC#N)CCC2(c3ccccc3)CC(C)N(C)CC2C)cc1OC.Cl (centres unmarked),13.2
12,Cc1ccc(NC(=O)COC(=O)CCc2nc3ccccc3c(=O)[nH]2)cc1Cl,20.7
13,Oc1ccc(-c2cn3c(n2)SCC3)cc1O,-2.21
14,O=S(=O)(c1ccc(F)cc1)N1CCN(CCc2ccccc2)CC1,6.18
15,O=C(Cn1ccnc1[N+](=O)[O-])NCc1ccccc1,3.91
16,O=C(C1CC1)N1CCc2cc(S(=O)(=O)NCC3COc4ccccc4O3)ccc21 (centres unmarked),10
17,CC(C)c1cccc(C(C)C)c1OC(=O)[C@H]1OC(C(C)(C)C)=C[C@@H]1c1ccccc1,-4.09
18,O=C(COc1ccc(Cl)cc1Cl)NC(=S)Nc1ccc(CN2CCOCC2)cc1,6.56
19,COc1ccc(CCN(C)C2CCCN(S(=O)(=O)c3ccccc3)C2)cc1OC (centres unmarked),-64.9

row,SMILES,"hERG current change (%, negative = inhibition) at 1uM [%]"
1,Oc1ccccc1N1CCN(c2ncccn2)CC1,7.73
2,Cn1c(SCCC#N)nnc1-c1ccc(F)cc1,8.2
3,COc1ccc(/C=N/N2CCN(Cc3ccc(C)cc3)CC2)cc1Br,15.1
4,CC(C)=CCN1CCN(CCCn2cccn2)CC1CCO (centres unmarked),1.54
5,Nc1c(Cl)cc(Cl)cc1C(=O)OCC(=O)N1CCCC1=O,10.5
6,Cc1cccc(CCNC(=O)C2CCCN(c3ncnc4c3nc3n4CCCCC3)C2)c1 (centres unmarked),-4.17
7,O=C(NC1CCN(C(=O)Nc2cccc(Cl)c2)CC1)c1ccco1,4.86
8,O=C(N/N=C\c1ccc(-c2ccc([N+](=O)[O-])cc2)o1)C1COc2ccccc2O1 (centres unmarked),12.5
9,CCNC(=S)N1CCN(CC(=O)Nc2ccc(Br)cc2)CC1,-30.5
10,CCOc1ccc(NC(=O)CSc2nc(-c3cccs3)cc(C(F)(F)F)n2)c([N+](=O)[O-])c1,0.249
11,COc1ccc(C(=O)OCC(=O)Nc2sccc2C(N)=O)cc1OC,0.856
12,COc1cc(/C=N/O)ccc1OCc1ccc([N+](=O)[O-])cc1,-3.66
13,CC(=O)c1cccc(NC(=O)c2cc(S(=O)(=O)N3CCOCC3)cs2)c1,13.8
14,CN1CCN(S(=O)(=O)c2cc([N+](=O)[O-])ccc2N2CCCCCC2)CC1,-0.0485
15,N#CCC(=O)Nc1ccc(C(=O)OCC(=O)NC2CCCCCC2)cc1,14.1
16,Cc1nc(NCCc2ccccc2)c(C#N)c(C)c1[N+](=O)[O-],14.9
17,CNS(=O)(=O)c1cccc(C(=O)OCC(=O)N(Cc2ccccc2)C(C)(C)C)c1,16.1
18,CCC(CC)NC(=O)c1cc2c(C)nn(Cc3ccccc3Cl)c2s1,9.52
